According to publication PMC12040169 (PLOS Biology, 2025):
This is one part of the list.

tested on: T1, C. trachomatis L2/434/Bu expressing GFP (CTL2-GFP); design: species or system HeLa; C. trachomatis total inclusion area by high-content imaging, normalised to DMSO; conditions: total inclusion area; 28.5 h, 10 µM; inhibitor
T1 construct: L2/434/Bu GFP intracellular growth in HeLa cells
Summary of the method: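 High-content images of fixed, Hoechst-stained infected cultures supply inclusion area and count (growth) plus nuclei number (viability), complementing bulk GFP/resorufin fluorescence. MIC determination is unchanged from the primary assay.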

Row | SMILES | % of control remaining
1 | CCc1nnc(NS(=O)(=O)c2ccc(N/C=C\C(=O)c3ccc4ccccc4c3)cc2)s1 [CBK263385] | 26.0055
2 | COc1ccc(N)cc1OCc1cn2ccccc2n1 [CBK295609] | 95.1179
3 | CN1C(=O)COc2ccccc2CCCC[C@@H]2[C@H]1CCCN2CCO [CBK292112] | 118.297
4 | CCc1noc(CN2CCN(c3ccc(C(=O)OC)cc3)CC2C)n1 (centres unmarked) [CBK306154] | 25.5003
5 | CCOC(=O)CNS(=O)(=O)c1cccc(Cl)c1C [CBK004702] | 129.401
6 | FC(F)(F)c1cccc(SCCc2ccccn2)n1 [CBK103719] | 83.0418
7 | CC(C)CNC(=O)c1cc(C2CN(Cc3c[nH]nc3C(C)(C)C)CCO2)nc2ccccc12 (centres unmarked) [CBK285925] | 81.6299
8 | CCOc1ccc(S(=O)(=O)Nc2cnccn2)cc1 [CBK270313] | 116.243
9 | COc1ccc(CNc2ccc(N3CCOCC3)c(C(=O)O)c2)cc1OC [CBK269915] | 105.943
10 | O=C(O)CCCN1C(=O)/C(=C/c2ccc(O)c(O)c2)SC1=S [CBK262852] | 65.966
11 | O=C1NCCN1CCOc1nccnc1-c1ccc(F)cc1 [CBK106898] | 105.027
12 | COc1ccccc1-c1cn2ccnc2c(NCCc2ccccn2)n1 [CBK037980] | 119.731
13 | CSCCC(=O)N1CCC(Cn2cncn2)(C2CCCCC2)CC1 [CBK136799] | 85.7767
14 | CCN1CCC(Oc2nccnc2OCc2cc(C)on2)CC1 [CBK082962T] | 96.6697
15 | COCCOCCOc1ccccc1OCCOCCOC [CBK009636] | 45.2905
16 | CC(Oc1ccc(-c2ccccc2)cc1)C(=O)Nc1ccc2c(c1)OCCO2 (centres unmarked) [CBK268002] | 113.004
17 | Cc1ccc(Cn2c(OCCN(C)C)nc3c2c(=O)n(C)c(=O)n3C)cc1 [CBK134241] | 91.8489
18 | CCN(CC)C(=O)C1CCCN1C(=O)c1ccnc(N(C)C)c1 (centres unmarked) [CBK305086] | 79.0306
19 | C(=N\N1CCN(Cc2cccc3ccccc23)CC1)/c1ccncc1 [CBK263003] | 97.5317
20 | O=C(Cn1c(NCCCO)nc2ccccc21)c1ccc(Cl)c(Cl)c1 [CBK262905B] | 97.5818
21 | Cc1ccc2c(c1)C(=O)CC1(CCN(C(=O)C3CCCC3)CC1)O2 [CBK283718] | 109.521
22 | CC(C)c1ncc(CN2CCC(CC(=O)N3CCN(c4ccccc4)CC3)CC2)cn1 [CBK286048] | 76.8105
23 | CC(C)CNC(=S)N[C@H]1CO[C@H]2[C@@H]1OC[C@@H]2Nc1nccc(C(C)(C)C)n1 [CBK289523] | 92.5865
24 | CCn1c(C)cc(C(=O)N2CCN(c3nccc(OC)n3)CC2)c1C [CBK305791] | 102.837
25 | Cc1nn(C)c(C)c1CN(C(=O)c1ccc(C)n(C)c1=O)C1CC1 [CBK281450] | 88.8485
26 | COc1cccc(C2Nc3ccc4ccccc4c3C3=C2C(=O)CC(C)(C)C3)c1OCC(=O)O (centres unmarked) [CBK263045] | 95.0027
27 | C=CCn1c(Cc2csc(NC(=O)c3ccc([N+](=O)[O-])cc3Cl)n2)n[nH]c1=S [CBK295291] | 93.71

Row | SMILES | % of control remaining
28 | COc1ccc([C@@]23CC[C@@H](NC(=O)Nc4ccc(OC(F)(F)F)cc4)C[C@@H]2N(C)CC3)cc1OC [CBK036455T] | 83.4238
29 | O=C(Cc1ccc(Cl)cc1)NC(=S)Nc1ccccc1[N+](=O)[O-] [CBK263909] | 96.2263
30 | CN(C)C(=O)CCNC(=O)c1ccc2c(c1)nc(N1CC[C@H](O)C1)n2C [CBK306671] | 55.8065
31 | CCc1nn(CC(=O)NC2CCC2)c(=O)c2cc3sc(C)cc3n12 [CBK284142] | 97.6331
32 | CC(=O)c1ccc(C(=O)Nc2ccc3nc(C)sc3c2)cc1 [CBK287310] | 127.186
33 | COc1ccc(CNC(=O)c2cc(S(=O)(=O)N3CCCC3)c[nH]2)cc1 [CBK304601] | 75.9862
34 | Cc1ccc(N2C(=O)C(CC(=O)Nc3cccc(F)c3)N(CCc3ccncc3)C2=O)cc1 (centres unmarked) [CBK268891] | 93.1916
35 | CCOC(=O)c1cnn2c(O)cc(CN3CCc4sccc4C3)nc12 [CBK305680] | 86.5293
36 | O=C(Nc1cnc(-c2ccc(F)c(Cl)c2)c(-c2cccnc2)n1)c1cnccn1 [CBK036819] | 101.416
37 | Nc1ncccc1C(=O)OCc1ccc(-c2ccccc2)cc1 [CBK295353] | 95.863
38 | COc1cccc(CC(=O)NCCNc2cccc(F)c2C#N)c1 [CBK305684] | 65.2811
39 | CC(C)(C)NCCN1CCn2c1nc1ccccc12 [CBK019113] | 36.1487
40 | O=C(O)CNC1=NC2(CCCCC2)Cc2ccccc21 [CBK287001] | 82.2505
41 | O=C(NCc1ccco1)c1ccc2c(c1)OCO2 [CBK262133] | 99.1335
42 | OCCNc1nc(Nc2ccc(O)cc2)nc2ccccc12 [CBK266606C] | 79.2894
43 | c1cnc(NCc2cc3n(n2)CCN(CC2CCCC2)C3)nc1 [CBK307007] | 76.9286
44 | Cc1nc2c(OCCOc3ccccc3)cccn2c1N(C)CC1CC1 [CBK147272] | 103.272
45 | O=C(Nc1ccc(F)cc1)C1CC(=O)n2c(nc3ccccc32)N1 (centres unmarked) [CBK287282] | 107.04
46 | CN(C)CC(=O)Nc1ccc2n(c1=O)C[C@H]1C[C@@H]2CN(Cc2ccccn2)C1 [CBK289206] | 83.4248
47 | Cc1cccc(-n2nnnc2SC(C)C(=O)O)c1 (centres unmarked) [CBK287003] | 110.669
48 | CCOc1ccc2cc(C3CC(c4ccccc4)=NN3C(=O)CCC(=O)O)c(Cl)nc2c1 (centres unmarked) [CBK296097] | 86.3432
49 | Cc1nccn1CCCn1cncc1-c1ccc2c(c1)CC(C)(C)O2 [CBK281809] | 97.2228
50 | Cc1ccc(CNC(=O)c2ccc3c(c2)NC(=O)C(N2CCCC2)S3)cc1 (centres unmarked) [CBK071788] | 55.9108
51 | COc1ccc(-n2cc(-c3ccncc3)nn2)cc1OC [CBK113106] | 110.225
52 | O=c1cc(NCc2ccncc2)c2ccccc2o1 [CBK017259] | 76.5581
53 | CC(NC(=O)C1CCN(CCCN(C)S(C)(=O)=O)CC1)c1cccc2ccccc12 (centres unmarked) [CBK148651] | 67.3278
54 | Cc1ccc(-c2noc(CSc3nnc(CCc4ccccc4)n3-c3ccccc3)n2)cc1 [CBK268493] | 106.984

Row | SMILES | % of control remaining
55 | CCOc1ccc(C2=NN(C(=O)CCC(=O)O)C(c3ccc4nccnc4c3)C2)cc1 (centres unmarked) [CBK296703] | 81.3941
56 | COc1ccccc1CN(C)CCc1ccccn1 [CBK261741G] | 96.0156
57 | CNc1nc(NCCCn2c(C)cccc2=O)cc(C2CCOC2)n1 (centres unmarked) [CBK306875] | 40.4835
58 | O=C(O)c1ccc(NC2=NS(=O)(=O)c3ccccc32)cc1 [CBK287084] | 96.3326
59 | CCC(Cc1ccccc1C)c1cc(O)c(C(c2ccccc2)C2CC2)c(=O)o1 (centres unmarked) [CBK016783] | 96.7864
60 | OC1CCN(Cc2c([C@H]3CCCO3)[nH]c3ncccc23)CC1 [CBK286301] | 62.2042
61 | CN(C)S(=O)(=O)N(CC(=O)O)c1ccccc1 [CBK267660] | 80.9909
62 | CC1CCN(S(=O)(=O)c2ccc(C(=O)N3CCC(C(=O)O)CC3)cc2)CC1 [CBK297097] | 69.497
63 | O=C(Nc1sc2c(c1C(=O)NCc1cccnc1)CCC2)c1ccco1 [CBK269599] | 104.978
64 | O=S(=O)(c1ccc(F)cc1F)N1CCN(Cc2ccc3c(c2)OCO3)CC1 [CBK074744] | 101.804
65 | CC(CC(=O)N1CCC(c2cc3cccnc3[nH]2)CC1)n1ccnc1 (centres unmarked) [CBK285028] | 87.9454
66 | Cc1noc(C)c1NC(=O)c1ccncc1 [CBK200389] | 98.667
67 | O=C(O)c1ccc(Cl)c(-c2ccc(/C=N\Nc3ccc([N+](=O)[O-])cn3)o2)c1 [CBK263431] | 92.8706
68 | CC1(COC(=O)N2CCC(OCc3cnc(-c4ccc(S(C)(=O)=O)cc4)cn3)CC2)COC1 [CBK172009] | 63.9461
69 | CC(C)(C)NC(=O)CCn1c(-c2cccnc2)cc2cccnc21 [CBK282691] | 75.6391
70 | CC(C)Oc1cccc(CNC(=O)c2ccc(C(C)(C)C)[nH]c2=O)c1 [CBK281415] | 76.8067
71 | O=C(c1ccc2c(c1)CCO2)N1CCC(S(=O)(=O)c2ccc(-c3ccccc3)cc2)CC1 [CBK131957] | 81.9202
72 | Cc1ccc(-c2c[nH]c([C@@H]3COCCN3Cc3c[nH]c4ccccc34)n2)cc1 [CBK289308] | 79.0078
73 | O=S(=O)(c1ccc(C(F)(F)F)cc1Cl)N1CCN(Cc2cccc3cccnc23)CC1 [CBK063075] | 83.1356
74 | Cn1c(=O)c2c(nc(CN3CCOCC3)n2CCc2ccccc2)n(C)c1=O [CBK269264] | 108.988
75 | Cc1cccnc1CN1CCN(C(=O)NCCSc2nncn2C)CC1 [CBK306949] | 72.1647
76 | CC(=O)Nc1cccc(NCc2csc(C3CCCC3)n2)c1 [CBK304874] | 70.1664
77 | CC(C)N1CCC(N(C)Cc2c[nH]nc2C(C)(C)C)CC1 [CBK283002] | 83.4557
78 | Nc1ccc(/C=C/c2cccc(C(=O)O)n2)cc1 [CBK267711] | 110.062
79 | CCNC(=O)N1CCC[C@@H](O)[C@H](NC(=O)c2ccc(OC)cc2)C1 [CBK289066] | 91.7449
80 | CC(C)Cn1c(SCC(=O)N2CCNC2=O)nnc1-c1ccco1 [CBK295175] | 87.4228
